Experimental data reported in the BET-seq Pho4 binding data (Le et al. 2018).
Some of the results follow. The energies were worked out here from pooled read counts, against the library average; single values are noisy.

These sequences were tested against T1, Pho4 (S. cerevisiae) (UniProt P07270) (assay: relative binding free energy (BET-seq); higher = weaker binding). Conditions: reference: library average.
T1 sequence: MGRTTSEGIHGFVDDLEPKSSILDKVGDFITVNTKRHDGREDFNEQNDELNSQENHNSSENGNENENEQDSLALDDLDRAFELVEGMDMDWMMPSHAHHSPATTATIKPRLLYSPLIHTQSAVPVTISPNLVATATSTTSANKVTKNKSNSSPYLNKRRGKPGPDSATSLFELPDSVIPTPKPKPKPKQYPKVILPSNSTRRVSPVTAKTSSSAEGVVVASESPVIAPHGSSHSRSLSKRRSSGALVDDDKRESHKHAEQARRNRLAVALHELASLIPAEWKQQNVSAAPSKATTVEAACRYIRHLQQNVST

Sequence | relative binding free energy
GTTTACACGTGACTGG | 0.18 kcal/mol
GATTACACGTGAGTTA | 0.47 kcal/mol
TGGGTCACGTGAATTG | 0.44 kcal/mol
ATCAGCACGTGTGGGG | 0.07 kcal/mol
GATTACACGTGGTCTT | 0.19 kcal/mol
GATGTCACGTGGACGT | 0.14 kcal/mol
GTGGACACGTGATTTG | 0.22 kcal/mol
TTCGACACGTGGATGG | 0.15 kcal/mol
TGCGTCACGTGTCGTT | -0.04 kcal/mol
GGTGACACGTGCGTAG | 0.03 kcal/mol
ATATGCACGTGGCTAG | -0.14 kcal/mol
CGTTGCACGTGGGACT | -0.09 kcal/mol
TAAAGCACGTGTGTTT | -0.1 kcal/mol
GTGGTCACGTGCAGTA | 0.19 kcal/mol
GGAAGCACGTGGCGGG | -0.24 kcal/mol
TTGGCCACGTGTTATG | 0.05 kcal/mol
TATGTCACGTGAGGGG | 0.3 kcal/mol
GGAGTCACGTGGGACT | 0.16 kcal/mol
ACGGGCACGTGGGCTG | -0.3 kcal/mol
TGCGGCACGTGGGATA | -0.13 kcal/mol
CAGGACACGTGGTAGG | -0.02 kcal/mol
TATGACACGTGTGGGT | 0.05 kcal/mol
AAGTGCACGTGACGGT | 0.16 kcal/mol
GTGGGCACGTGTCGAT | -0.11 kcal/mol
ATAGTCACGTGGTCAG | -0.04 kcal/mol
GCATTCACGTGATTAT | 0.42 kcal/mol

Sequence | relative binding free energy
TGTGACACGTGGGATG | -0.11 kcal/mol
CACGTCACGTGTGTGT | 0.01 kcal/mol
GGTCTCACGTGTAAGT | 0.31 kcal/mol
CATGTCACGTGGAAGT | 0.14 kcal/mol
TTGTGCACGTGAATTA | 0.23 kcal/mol
TTAAGCACGTGTTGCG | -0.14 kcal/mol
TGGAGCACGTGTTAGG | -0.04 kcal/mol
AGAGTCACGTGGGGAT | 0.02 kcal/mol
GTATTCACGTGTTCAG | 0.25 kcal/mol
TGGGCCACGTGAACGG | 0.21 kcal/mol
AGGTGCACGTGCTGAG | 0 kcal/mol
GTGACCACGTGGGCGT | -0.17 kcal/mol
ATGCTCACGTGAGGTT | 0.42 kcal/mol
TAGTTCACGTGGATCT | 0.24 kcal/mol
TAGCGCACGTGGGGAT | -0.32 kcal/mol
GTAGCCACGTGGGCTG | -0.21 kcal/mol
CTATTCACGTGGTGTG | 0.19 kcal/mol
AAGGCCACGTGTGTTG | -0.03 kcal/mol
TAGTCCACGTGTAGTT | 0.04 kcal/mol
GATAGCACGTGGGGTC | -0.21 kcal/mol
GTGTCCACGTGAAAGG | 0.26 kcal/mol
GGATGCACGTGCGTAA | 0.09 kcal/mol
TATGTCACGTGATTCT | 0.15 kcal/mol
GTGAACACGTGCGGCT | 0.16 kcal/mol
ACTATCACGTGTGTGT | 0.12 kcal/mol
ATGGCCACGTGTTGAG | 0.05 kcal/mol

Sequence | relative binding free energy
AGGTGCACGTGGCTGA | -0.08 kcal/mol
GGTTACACGTGTCGTG | 0.09 kcal/mol
ATAGGCACGTGCGGTC | -0.05 kcal/mol
TGTGCCACGTGAGGAG | 0.13 kcal/mol
GTCCGCACGTGGTGGT | 0.01 kcal/mol
GTTCTCACGTGGAGAG | 0.36 kcal/mol
ATTGGCACGTGTTGGG | -0.07 kcal/mol
AAGACCACGTGTTGGG | 0.12 kcal/mol
CGAGTCACGTGTAATT | 0.36 kcal/mol
GATATCACGTGATATT | 0.27 kcal/mol
GTGGCCACGTGTAGAG | -0.06 kcal/mol
GTATGCACGTGGGTCG | -0.06 kcal/mol
GCATGCACGTGCGTGT | -0.03 kcal/mol
CGTGGCACGTGAATGG | 0.11 kcal/mol
TTTCACACGTGTTGCT | -0.01 kcal/mol
TTTAACACGTGCTATT | -0.06 kcal/mol
TTTGACACGTGCAGTA | -0.08 kcal/mol
GTTGTCACGTGGTGCA | 0.18 kcal/mol
GATGTCACGTGGAAGT | 0.36 kcal/mol
ATATACACGTGGTTTT | -0.02 kcal/mol
GTGTACACGTGCTGTA | -0.07 kcal/mol
CAGCGCACGTGGGAGG | -0.23 kcal/mol
CCTGGCACGTGATGGG | 0 kcal/mol
TGATACACGTGGGATA | -0.06 kcal/mol
TGTTACACGTGGGTAC | -0.02 kcal/mol
GCATACACGTGAGGGG | 0.37 kcal/mol

Sequence | relative binding free energy
GGTTACACGTGCGGTC | 0.13 kcal/mol
TGTTACACGTGTTACA | 0.22 kcal/mol
GTGGACACGTGAGTAG | 0.3 kcal/mol
AGATTCACGTGTGATT | 0.39 kcal/mol
AACGGCACGTGTGGCG | 0 kcal/mol
TTGATCACGTGTATTA | 0 kcal/mol
TGCGTCACGTGCGTTT | -0.1 kcal/mol
TTAATCACGTGGGGAA | 0.09 kcal/mol
GCGATCACGTGGTTGG | 0.09 kcal/mol
GATTACACGTGGTATG | 0.08 kcal/mol
TTTCGCACGTGTGGTC | 0.15 kcal/mol
GATTCCACGTGGCGTT | 0.24 kcal/mol
GTTATCACGTGGAGTC | 0.27 kcal/mol
GAGCGCACGTGATGGT | 0.04 kcal/mol
ATTTTCACGTGGCATT | 0.11 kcal/mol
GGCTGCACGTGTGATG | -0.05 kcal/mol
TTAATCACGTGACTGG | 0.32 kcal/mol
GGGTGCACGTGTTATT | 0.1 kcal/mol
GCGGGCACGTGTTCGG | -0.08 kcal/mol
TGGAGCACGTGAGTCT | 0.1 kcal/mol
TGATTCACGTGGGTCT | 0.18 kcal/mol
TGCGACACGTGGTTTT | 0.01 kcal/mol
GTTGTCACGTGCGTGG | 0.15 kcal/mol
TTGGTCACGTGTTTGC | 0.08 kcal/mol
GAGTTCACGTGGCGAG | 0.23 kcal/mol
AATAGCACGTGTTTAG | -0.05 kcal/mol

Sequence | relative binding free energy
TGGCTCACGTGTACGG | 0.28 kcal/mol
ATGTGCACGTGTAACG | 0.03 kcal/mol
AGTAGCACGTGGCGGG | -0.22 kcal/mol
GTGTTCACGTGGCCAT | 0.2 kcal/mol
GGGTTCACGTGGAGAA | 0.31 kcal/mol
TTTCGCACGTGTTATA | -0.03 kcal/mol
AGGTTCACGTGTAGGG | 0.2 kcal/mol
TGCAACACGTGTGTTG | -0.04 kcal/mol
TGTAACACGTGAGTCG | 0.24 kcal/mol
GGTTCCACGTGGGCTT | 0.19 kcal/mol
TTTTACACGTGGCTGT | 0.08 kcal/mol
ACTGGCACGTGAGATG | 0.04 kcal/mol
TGGAACACGTGGTAAG | 0.01 kcal/mol
TTGGTCACGTGTGCTG | 0.07 kcal/mol
TGACTCACGTGTCGGG | 0.19 kcal/mol
TCTGCCACGTGTATGG | 0.09 kcal/mol
GAGTTCACGTGGTCTT | 0.27 kcal/mol
GATTTCACGTGGTACA | 0.35 kcal/mol
CGAGGCACGTGTTGTT | -0.08 kcal/mol
ATGTACACGTGGTAGT | 0.04 kcal/mol
GGGCGCACGTGGGAGC | -0.14 kcal/mol
CGATTCACGTGTAAGT | 0.41 kcal/mol
CTAGTCACGTGGTGTG | 0.01 kcal/mol
GGGTGCACGTGTGTAG | 0.05 kcal/mol
TTAGGCACGTGATACG | -0.15 kcal/mol
TGGGTCACGTGTATGT | 0.14 kcal/mol

Sequence | relative binding free energy
ATGCGCACGTGGTGCG | -0.03 kcal/mol
GTGGACACGTGTGTCG | 0.15 kcal/mol
ATGCGCACGTGAATGG | 0.11 kcal/mol
GAATGCACGTGTGGGT | 0.16 kcal/mol
TTTGGCACGTGATTTA | -0.03 kcal/mol
TAAATCACGTGATGGA | 0.18 kcal/mol
GGGTTCACGTGAAGAT | 0.48 kcal/mol
GTAGTCACGTGTGGGC | 0.23 kcal/mol
AGTGTCACGTGATACT | 0.26 kcal/mol
CATGTCACGTGTGAGT | 0.1 kcal/mol
TAGACCACGTGGGGGC | -0.14 kcal/mol
GGTTGCACGTGTGTAA | -0.04 kcal/mol
ATGCGCACGTGGAATG | 0.02 kcal/mol
ATTGGCACGTGTAAGC | -0.07 kcal/mol
TTAGGCACGTGCAGAG | -0.16 kcal/mol
GGGATCACGTGTTTGT | 0.29 kcal/mol
GTCGGCACGTGGTGTC | 0 kcal/mol
TAAGTCACGTGATTTA | 0.21 kcal/mol
CTAGTCACGTGGGATA | -0.02 kcal/mol
CTTCTCACGTGGGTGT | 0.1 kcal/mol
TCGTGCACGTGTTTCG | -0.03 kcal/mol
ACGTGCACGTGATGGA | -0.04 kcal/mol
GTAAACACGTGTGGTT | 0 kcal/mol
CAGTGCACGTGGGGCG | -0.21 kcal/mol
AGTGTCACGTGGGGAC | -0.14 kcal/mol
ATGGCCACGTGGAGGT | -0.08 kcal/mol

Sequence | relative binding free energy
ATTTTCACGTGGTGGC | 0.22 kcal/mol
AGGATCACGTGGTCAG | 0.02 kcal/mol
AAAAGCACGTGTGGTC | 0.01 kcal/mol
CGGGTCACGTGCTATG | -0.03 kcal/mol
GTCGGCACGTGCAGGG | -0.05 kcal/mol
TTGAGCACGTGATAAT | -0.08 kcal/mol
AGGCACACGTGGTCGG | -0.08 kcal/mol
AGTGGCACGTGAACAG | 0.15 kcal/mol
TAATGCACGTGCGAGG | -0.09 kcal/mol
AGTGACACGTGCGGTC | -0.05 kcal/mol
TATAGCACGTGGGTAT | -0.25 kcal/mol
CGTCTCACGTGGTAGT | 0.26 kcal/mol
TTGGGCACGTGAACAT | 0.14 kcal/mol
GGGGTCACGTGAGGCT | 0.3 kcal/mol
CATATCACGTGTCGGT | 0.24 kcal/mol
GTTTTCACGTGGGGTG | 0.23 kcal/mol
TATATCACGTGTTGAA | 0.12 kcal/mol
TTAGTCACGTGTAGGT | 0.03 kcal/mol
GCTTTCACGTGGGGCG | 0.07 kcal/mol
ACGGGCACGTGAATGG | 0.19 kcal/mol
AATTTCACGTGGATAG | 0.32 kcal/mol
GTGGTCACGTGAGAGT | 0.37 kcal/mol
ATGGGCACGTGGAGTA | -0.17 kcal/mol
TGAGTCACGTGGAGCA | 0.14 kcal/mol
GTTAACACGTGATGTA | 0.12 kcal/mol
ATTTTCACGTGTGATG | 0.29 kcal/mol

Sequence | relative binding free energy
GGTCCCACGTGTGGGT | 0.15 kcal/mol
GGGATCACGTGGCCGG | 0.06 kcal/mol
GGTGACACGTGTACAT | 0.27 kcal/mol
TAGGCCACGTGGATGT | 0.05 kcal/mol
GAGGGCACGTGTGAAG | 0.01 kcal/mol
GGTAGCACGTGAATTG | 0.2 kcal/mol
AATATCACGTGGGCAT | 0.04 kcal/mol
TCTAGCACGTGAGGAT | 0.25 kcal/mol
GCGGGCACGTGGGGCG | -0.11 kcal/mol
TTCGGCACGTGGTTTG | -0.26 kcal/mol
CTCGACACGTGGTGGT | -0.07 kcal/mol
ATTTACACGTGGAAAA | 0.24 kcal/mol
ATCGGCACGTGTAATG | -0.02 kcal/mol
AAGTACACGTGGGTTC | 0.03 kcal/mol
GGAGCCACGTGTTGGG | -0.06 kcal/mol
CTGTGCACGTGGGATG | -0.15 kcal/mol
TTATACACGTGAGCTT | 0.12 kcal/mol
TGTATCACGTGTACAG | 0.09 kcal/mol
TCGTCCACGTGGGGTT | -0.11 kcal/mol
CGTTTCACGTGGTTTG | 0.2 kcal/mol
ATATTCACGTGGGTCG | 0.16 kcal/mol
AAGTTCACGTGGAAAG | 0.26 kcal/mol
ATGGTCACGTGCTGGA | 0.1 kcal/mol
CATAGCACGTGTGGGA | -0.03 kcal/mol
AGTAACACGTGAGTAT | 0.25 kcal/mol
TGGGACACGTGGCTGC | -0.03 kcal/mol

Sequence | relative binding free energy
TGCGCCACGTGTTGTA | -0.06 kcal/mol
ATGGCCACGTGTGGGT | -0.03 kcal/mol
ATGGACACGTGTGGTT | 0.11 kcal/mol
TAGGGCACGTGTTTAC | -0.22 kcal/mol
CTTCACACGTGGGGTT | -0.14 kcal/mol
GTTATCACGTGTGCGT | 0.09 kcal/mol
GTTGCCACGTGCTTGT | -0.06 kcal/mol
AACTTCACGTGGGTAG | 0.28 kcal/mol
GTGTACACGTGATTTT | 0.24 kcal/mol
GAATTCACGTGTCAGT | 0.31 kcal/mol
ATTGCCACGTGAGGTT | 0.12 kcal/mol
GGCTGCACGTGGGCTT | -0.21 kcal/mol
GGAGGCACGTGAGTCT | 0.27 kcal/mol
GCGCGCACGTGGGGCT | -0.17 kcal/mol
TTGGGCACGTGACGAT | 0.06 kcal/mol
TACTGCACGTGGTTAT | -0.05 kcal/mol
GGGTACACGTGGGTCA | -0.14 kcal/mol
TAACGCACGTGGTTAG | -0.1 kcal/mol
ACGGACACGTGCGGGT | 0.08 kcal/mol
GTTAGCACGTGCATTA | 0.1 kcal/mol
TGACGCACGTGGGGCT | -0.15 kcal/mol
TTTAGCACGTGGGTAG | -0.16 kcal/mol
